Source: article PMC10668032
The other results are listed elsewhere or left out. At the low end of the ranking the order means little.

Target: SIX1 homeodomain (reference allele) (UniProt Q15475)
Assay: universal protein binding microarray
Details: Universal all-10-mer PBM (8x60K, AMADID 030236), 300 nM GST-tagged protein, Alexa Fluor 488 anti-GST; buffer, salt, pH and temperature not stated; high values mean tight binding; most listed sequences are background and not binding sites; double strand, one strand shown

Row | Sequence | binding signal
1 | GTTGTATA | 0.176 E-score
2 | GAACGTTA | -0.348 E-score
3 | GACTGTAC | -0.155 E-score
4 | TCACACAA | -0.00967 E-score
5 | AGACTTAA | -0.292 E-score
6 | ATGGGCCA | -0.28 E-score
7 | ATTAGAGC | 0.0969 E-score
8 | AAGCCGTC | -0.124 E-score
9 | GTCACCCA | -0.165 E-score
10 | GGTCCGAC | -0.136 E-score
11 | AGAAATGG | -0.203 E-score
12 | GAAAAGAA | -0.237 E-score
13 | AAGTCGCG | -0.12 E-score
14 | ATTCTGGC | -0.176 E-score
15 | CGTATTGC | 0.189 E-score
16 | AACTCTAT | -0.14 E-score
17 | CACACTAG | -0.13 E-score
18 | GCTCAAGC | -0.174 E-score
19 | GCCGCGAA | -0.132 E-score
20 | ATGGCATC | 0.155 E-score
21 | AAGCCCAG | -0.2 E-score
22 | AAATTTGG | -0.27 E-score
23 | CAAAGGTA | 0.0553 E-score
24 | AAACAAAT | -0.203 E-score
25 | ACAGGACA | -0.181 E-score

Row | Sequence | binding signal
26 | AGTTAGCC | -0.171 E-score
27 | ATGCTCGC | -0.02 E-score
28 | GATCGTCA | 0.145 E-score
29 | AGGCTATA | 0.132 E-score
30 | GCCGAATA | 0.139 E-score
31 | TGGTCGAA | -0.209 E-score
32 | GATTATCC | 0.329 E-score
33 | GCGGGTTA | 0.114 E-score
34 | ACAGGGCA | -0.11 E-score
35 | GATGACTA | -1.5e-05 E-score
36 | CGTGTAGA | 0.17 E-score
37 | AATGACGC | 0.0723 E-score
38 | ACCACGGT | -0.139 E-score
39 | CCCTGGAG | -0.29 E-score
40 | GAGTCAGC | -0.17 E-score
41 | CCTTGTCG | -0.117 E-score
42 | AATCAAGC | -0.0872 E-score
43 | GTCGGTAA | -0.144 E-score
44 | CCGCTTTA | 0.0759 E-score
45 | TGTTGGAA | -0.0784 E-score
46 | AAGGCCAG | -0.108 E-score
47 | CCGAACAG | -0.188 E-score
48 | ATGGTCTC | 0.153 E-score
49 | CGCCGCAC | -0.187 E-score
50 | TTGCGCAA | -0.253 E-score

Row | Sequence | binding signal
51 | ACTGCTGC | -0.153 E-score
52 | CATGGTTA | -0.0438 E-score
53 | TCATACGA | 0.0819 E-score
54 | ACGTAGCA | -0.0792 E-score
55 | ACTTATCC | 0.166 E-score
56 | AGTAAGAC | -0.0377 E-score
57 | CCAGGATC | 0.355 E-score
58 | AGGTGGCC | -0.144 E-score
59 | AGATTACT | 0.0734 E-score
60 | ACACATTG | -0.127 E-score
61 | GATCGCCA | 0.211 E-score
62 | ACCTGCCT | -0.0294 E-score
63 | AACTGGCG | -0.15 E-score
64 | ATTCGCAA | -0.111 E-score
65 | AGGCTCCG | -0.0732 E-score
66 | CTCTAAGC | -0.0711 E-score
67 | CATTCGCG | 0.0741 E-score
68 | GATAACGC | -0.0465 E-score
69 | ACTCCGTC | -0.063 E-score
70 | CTAATTAA | -0.12 E-score
71 | AAAGTAGG | -0.151 E-score
72 | CATACCAC | 0.0738 E-score
73 | GCCAATCA | -0.137 E-score
74 | AAAGGGAC | -0.212 E-score
75 | ACGTACGC | -0.25 E-score

Row | Sequence | binding signal
76 | AATGGAAA | -0.00512 E-score
77 | CATGCGCG | -0.0803 E-score
78 | AAGGGTGG | -0.121 E-score
79 | CCAGTCAC | -0.0359 E-score
80 | ACTAACCC | -0.104 E-score
81 | ACTGTCTG | -0.101 E-score
82 | CCAGGCGG | -0.0885 E-score
83 | AATAGCGG | -0.0273 E-score
84 | CTGTTACA | -0.196 E-score
85 | AAGGGCCT | -0.171 E-score
86 | ATGATCAA | 0.11 E-score
87 | ATCTACTA | 0.276 E-score
88 | AGTCCAGG | -0.0505 E-score
89 | ACTCACCT | -0.0548 E-score
90 | TAGTCCCA | -0.151 E-score
91 | CTCGGATC | 0.396 E-score
92 | AAATGTGC | -0.145 E-score
93 | AAGCGAGA | 0.0121 E-score
94 | ATGTTTAG | -0.157 E-score
95 | TAGTTATA | 0.124 E-score
96 | ATCGCTAA | 0.0985 E-score
97 | ACCGTACT | 0.0726 E-score
98 | TCCCCTCA | 0.175 E-score
99 | ATACTGGC | 0.228 E-score
100 | GACCTCGA | -0.0204 E-score

Row | Sequence | binding signal
101 | AACTAAAT | 0.0532 E-score
102 | ATGGAGCA | -0.161 E-score
103 | CGGCTCGA | 0.15 E-score
104 | ATAGACTG | -0.0652 E-score
105 | CCGAATAA | -0.00363 E-score
106 | AAATAACA | 0.0073 E-score
107 | CCTCAGTC | -0.247 E-score
108 | AGACGCTC | -0.15 E-score
109 | CACCTAGA | 0.122 E-score
110 | ACGATTCC | -0.0224 E-score
111 | AAGCGCTA | -0.11 E-score
112 | AAACGGCA | -0.0389 E-score
113 | CGTGTTGC | -0.0368 E-score
114 | CCCGAGTA | 0.279 E-score
115 | ACCGCGTC | -0.194 E-score
116 | GAGGTCCC | -0.153 E-score
117 | GGCCTTAC | -0.194 E-score
118 | CCTCAGCG | 0.046 E-score
119 | GCGCCACA | -0.119 E-score
120 | CTTTAGGA | 0.0351 E-score
121 | ATGGCAAC | 0.0243 E-score
122 | GGCCCCCC | -0.163 E-score
123 | ACTTCGAA | -0.332 E-score
124 | ACACGACT | 0.162 E-score
125 | CATAGATG | -0.146 E-score

Row | Sequence | binding signal
126 | AATCGGGA | -0.079 E-score
127 | GTTTACAA | -0.183 E-score
128 | ATCGTGGG | 0.163 E-score
129 | ACAGTGAA | -0.155 E-score
130 | AAACACAG | -0.0585 E-score
131 | GAACCCGA | 0.19 E-score
132 | ATAGACAG | -0.0101 E-score
133 | GACATCTC | 0.0839 E-score
134 | CAGGTTAC | -0.135 E-score
135 | GTCCTACA | -0.025 E-score
136 | AAGGTACA | -0.0469 E-score
137 | GTCCGATA | 0.331 E-score
138 | GCGCTAGA | -0.0178 E-score
139 | ATTGCACA | -0.0444 E-score
140 | ACCATCAA | -0.152 E-score
141 | CACGCTAA | -0.0372 E-score
142 | GTCCCCTA | 0.0696 E-score
143 | AGGACGTG | -0.0876 E-score
144 | ATGGTATG | 0.0841 E-score
145 | CTTCCACA | -0.311 E-score
146 | CGGGGGCA | -0.229 E-score
147 | TCTACGCA | -0.04 E-score
148 | GGAGATCC | 0.374 E-score
149 | CTAATAAA | -0.04 E-score
150 | GAGCATAC | -0.0182 E-score

Row | Sequence | binding signal
151 | AGAAGCGG | -0.0186 E-score
152 | AATATGAG | 0.0352 E-score
153 | AGATACTG | 0.342 E-score
154 | AACGCTAC | -0.19 E-score
155 | AAAGGAAT | -0.172 E-score
156 | AGGTAGCC | -0.131 E-score
157 | CTGTGGAC | 0.0181 E-score
158 | GCCTACAC | 0.042 E-score
159 | CAGACGCA | 0.00388 E-score
160 | GGGTAAAA | -0.0745 E-score
161 | AGTAGTGG | -0.00031 E-score
162 | ACCTGTAT | 0.272 E-score
163 | AGTAGCGA | 0.1 E-score
164 | CTGCTGAC | -0.0553 E-score
165 | AATACCGC | 0.386 E-score
166 | CACGACAC | 0.216 E-score
167 | ATATTAGA | 0.211 E-score
168 | AAAGTTGG | -0.271 E-score
169 | CTGATGTC | -0.0955 E-score
170 | GAAATCGC | -0.166 E-score
171 | CTGCCGTC | 0.124 E-score
172 | CGCCGTGA | -0.0546 E-score
